{"source": "the supplement of paper PMC3334620", "note": "In all, about 33,000 sequences were measured (“E-score (-0.5 to 0.5)”: median about -0.035, highest 2% from about 0.35 on). This is one part of the list.", "data": [{"target": "T1, Pdr3 (UniProt P33200)", "T1 sequence": "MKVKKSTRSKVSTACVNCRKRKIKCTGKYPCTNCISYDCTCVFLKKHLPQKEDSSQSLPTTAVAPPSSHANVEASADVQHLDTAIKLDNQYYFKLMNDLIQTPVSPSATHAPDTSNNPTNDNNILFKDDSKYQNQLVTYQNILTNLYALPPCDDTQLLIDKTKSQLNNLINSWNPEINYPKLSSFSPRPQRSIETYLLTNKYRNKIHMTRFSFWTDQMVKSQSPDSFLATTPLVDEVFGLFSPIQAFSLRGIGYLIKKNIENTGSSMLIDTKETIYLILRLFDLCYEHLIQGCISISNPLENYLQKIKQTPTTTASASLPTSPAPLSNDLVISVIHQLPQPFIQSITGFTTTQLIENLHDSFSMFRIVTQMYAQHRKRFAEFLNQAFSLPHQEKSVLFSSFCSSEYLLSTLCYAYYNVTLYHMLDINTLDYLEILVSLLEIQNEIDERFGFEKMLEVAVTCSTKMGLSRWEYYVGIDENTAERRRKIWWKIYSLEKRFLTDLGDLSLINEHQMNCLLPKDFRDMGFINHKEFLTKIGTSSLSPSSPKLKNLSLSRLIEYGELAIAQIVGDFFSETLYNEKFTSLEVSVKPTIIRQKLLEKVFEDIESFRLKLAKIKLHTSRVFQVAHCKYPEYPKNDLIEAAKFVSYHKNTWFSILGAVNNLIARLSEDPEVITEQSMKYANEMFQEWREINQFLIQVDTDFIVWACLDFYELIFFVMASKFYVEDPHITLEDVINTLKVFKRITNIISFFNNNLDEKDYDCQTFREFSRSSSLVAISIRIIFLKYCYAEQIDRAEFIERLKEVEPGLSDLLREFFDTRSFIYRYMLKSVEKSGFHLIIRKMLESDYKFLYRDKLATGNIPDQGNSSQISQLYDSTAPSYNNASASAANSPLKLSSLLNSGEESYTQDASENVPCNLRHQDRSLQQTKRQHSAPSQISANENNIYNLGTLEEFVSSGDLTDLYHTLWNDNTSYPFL", "assay": "PBM E-score (8-mer binding enrichment) (E-score (-0.5 to 0.5)); higher = stronger / more preferred TF binding; most listed sequences are background and not binding sites", "details": "protein concentration: 200 nM; construct: GST-full length", "summary_of_the_method": "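Universal all-10-mer Agilent arrays, double-stranded by primer extension on fresh or once-stripped slides, were probed with about 100-200 nM GST-tagged yeast transcription factors made by PURExpress. Fluorescent anti-GST detected bound protein, and masliner normalised the scans. E-scores from the Universal PBM Analysis Suite were given to each ungapped eight-base word pooled with its reverse complement.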", "values": [{"sequence": "AAGCTAGA", "PBM E-score": -0.107}, {"sequence": "GTTAATGA", "PBM E-score": -0.145}, {"sequence": "CGACAGCC", "PBM E-score": -0.177}, {"sequence": "AAGACATC", "PBM E-score": -0.192}, {"sequence": "CACGCAGG", "PBM E-score": -0.0782}, {"sequence": "TAGCGTCA", "PBM E-score": -0.159}, {"sequence": "CAGCCCCG", "PBM E-score": 0.242}, {"sequence": "CCATAGCC", "PBM E-score": 0.0577}, {"sequence": "CCGGCCGA", "PBM E-score": 0.372}, {"sequence": "CACTCTTC", "PBM E-score": -0.0419}, {"sequence": "ATCGGCAT", "PBM E-score": 0.175}, {"sequence": "GTCGTGTA", "PBM E-score": -0.14}, {"sequence": "AACCCACG", "PBM E-score": 0.0355}, {"sequence": "ATATAGAT", "PBM E-score": -0.0476}, {"sequence": "AAAATGTG", "PBM E-score": 0.105}, {"sequence": "CCGTGATA", "PBM E-score": 0.159}, {"sequence": "GAGTGGAC", "PBM E-score": 0.0145}, {"sequence": "GCGATGAC", "PBM E-score": 0.0396}, {"sequence": "AATCCACA", "PBM E-score": -0.183}, {"sequence": "CCGTCAAC", "PBM E-score": 0.1}, {"sequence": "AGGTTGGG", "PBM E-score": -0.145}, {"sequence": "CACCCCAG", "PBM E-score": -0.0866}, {"sequence": "TCACCCCA", "PBM E-score": 0.0393}, {"sequence": "AATATCCA", "PBM E-score": 0.111}, {"sequence": "AGTATGAC", "PBM E-score": 0.0142}, {"sequence": "CATCTTTC", "PBM E-score": -0.104}, {"sequence": "ACACCCAT", "PBM E-score": -0.00624}, {"sequence": "GCTAACGA", "PBM E-score": 0.0163}, {"sequence": "AACTTACA", "PBM E-score": -0.168}, {"sequence": "CATAAATG", "PBM E-score": -0.285}, {"sequence": "ACTCATCG", "PBM E-score": -0.0411}, {"sequence": "GACAGGAC", "PBM E-score": -0.105}, {"sequence": "CGTGTCCC", "PBM E-score": 0.211}, {"sequence": "GGCCAGGA", "PBM E-score": -0.0954}, {"sequence": "AAGTAAGA", "PBM E-score": -0.278}, {"sequence": "AAGGCACG", "PBM E-score": 0.107}, {"sequence": "AAATGTCC", "PBM E-score": -0.0402}, {"sequence": "AAATTCCC", "PBM E-score": 0.144}, {"sequence": "AATGGCGT", "PBM E-score": 0.00279}, {"sequence": "GCGCTACA", "PBM E-score": -0.136}, {"sequence": "GGGGGATA", "PBM E-score": -0.159}, {"sequence": "GTGAAACA", "PBM E-score": -0.00843}, {"sequence": "CCCCCAGG", "PBM E-score": -0.193}, {"sequence": "ATGATTTC", "PBM E-score": 0.117}, {"sequence": "ATCCTGGA", "PBM E-score": 0.0107}, {"sequence": "GGTCCATA", "PBM E-score": -0.154}, {"sequence": "AGCCAGAC", "PBM E-score": -0.00493}, {"sequence": "GGCCTAGA", "PBM E-score": -0.0513}, {"sequence": "AGGTAGTC", "PBM E-score": -0.214}, {"sequence": "ACTCTGAC", "PBM E-score": -0.0748}, {"sequence": "CGTAAAAC", "PBM E-score": -0.0457}, {"sequence": "CGACATTA", "PBM E-score": 0.124}, {"sequence": "GTAGCCTA", "PBM E-score": -0.389}, {"sequence": "GTAGCGAC", "PBM E-score": -0.0961}, {"sequence": "GCATTGAA", "PBM E-score": 0.0593}, {"sequence": "AAACTGAT", "PBM E-score": 0.0335}, {"sequence": "GTGCATGA", "PBM E-score": -0.0649}, {"sequence": "ACCATAGA", "PBM E-score": -0.00346}, {"sequence": "CGTCGATC", "PBM E-score": 0.126}, {"sequence": "CTCATCGC", "PBM E-score": 0.0385}, {"sequence": "CTAACAAA", "PBM E-score": -0.184}, {"sequence": "TACACACA", "PBM E-score": -0.125}, {"sequence": "AACCAGTA", "PBM E-score": 0.0606}, {"sequence": "AAGTCTTA", "PBM E-score": -0.204}, {"sequence": "GTAACAAC", "PBM E-score": -0.151}, {"sequence": "GGCGTGCA", "PBM E-score": 0.00491}, {"sequence": "GCTAACAA", "PBM E-score": -0.121}, {"sequence": "CCATGCTA", "PBM E-score": -0.108}, {"sequence": "ATCTGTCG", "PBM E-score": 0.119}, {"sequence": "ATCCCTTA", "PBM E-score": -0.0685}, {"sequence": "TCTTCAAA", "PBM E-score": -0.0248}, {"sequence": "GCATAGTA", "PBM E-score": 0.0519}, {"sequence": "AAGACGTG", "PBM E-score": -0.0469}, {"sequence": "AGATTGAT", "PBM E-score": 0.0251}, {"sequence": "GCCGTCTA", "PBM E-score": 0.0671}, {"sequence": "CATGTTGA", "PBM E-score": 0.114}, {"sequence": "CTCAGTTC", "PBM E-score": -0.187}, {"sequence": "ATAATGAG", "PBM E-score": -0.127}, {"sequence": "CACACCTG", "PBM E-score": -0.176}, {"sequence": "GCCTACCA", "PBM E-score": -0.102}, {"sequence": "AGGCACGG", "PBM E-score": 0.175}, {"sequence": "AATTCACC", "PBM E-score": 0.128}, {"sequence": "GATATCCC", "PBM E-score": 0.213}, {"sequence": "AAGATGGC", "PBM E-score": -0.0125}, {"sequence": "ATGATCGA", "PBM E-score": -0.11}, {"sequence": "ACGGATCC", "PBM E-score": 0.445}]}]}
